# Test results published in the supplement of paper PMC3334620.
# Whole data set: some 33,000 sequences, median “E-score (-0.5 to 0.5)” near -0.012, cut for the highest 2% near 0.27. The list shows a part of the results.
# Biological target: T1, Vhr1 (UniProt P40522)
# T1 sequence: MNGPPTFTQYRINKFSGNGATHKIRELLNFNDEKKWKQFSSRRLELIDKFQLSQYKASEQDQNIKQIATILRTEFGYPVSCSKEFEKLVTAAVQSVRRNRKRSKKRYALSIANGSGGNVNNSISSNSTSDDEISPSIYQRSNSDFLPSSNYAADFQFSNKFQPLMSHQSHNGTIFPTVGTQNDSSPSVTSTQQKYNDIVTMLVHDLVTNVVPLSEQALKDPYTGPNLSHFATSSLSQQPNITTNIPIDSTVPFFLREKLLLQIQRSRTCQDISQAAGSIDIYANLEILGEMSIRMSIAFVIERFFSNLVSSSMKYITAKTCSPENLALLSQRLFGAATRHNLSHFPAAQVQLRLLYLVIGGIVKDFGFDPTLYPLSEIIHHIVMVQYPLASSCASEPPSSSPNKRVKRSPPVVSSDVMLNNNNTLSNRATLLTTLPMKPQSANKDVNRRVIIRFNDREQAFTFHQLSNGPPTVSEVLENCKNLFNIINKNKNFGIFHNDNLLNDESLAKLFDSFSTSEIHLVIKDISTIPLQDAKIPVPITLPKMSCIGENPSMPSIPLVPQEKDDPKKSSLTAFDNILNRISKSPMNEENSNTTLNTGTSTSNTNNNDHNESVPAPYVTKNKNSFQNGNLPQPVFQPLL
# Experiment: PBM E-score (8-mer binding enrichment) (E-score (-0.5 to 0.5)); higher = stronger / more preferred TF binding; most listed sequences are background and not binding sites
# Conditions: protein concentration: 200 nM; construct: GST-full length
# Procedure, shortened: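 Each ungapped eight-base word and its reverse complement, pooled, received an E-score from the Universal PBM Analysis Suite. Underlying scans, normalised with masliner, recorded fluorescent anti-GST bound to GST-tagged yeast transcription factors. These were applied at about 100-200 nM to universal all-10-mer Agilent arrays double-stranded by primer extension.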
row,Sequence,PBM E-score
1,CGACCGTC,-0.19
2,ACAACCGA,0.204
3,ATAGGAGG,-0.0587
4,TGGAATAA,-0.145
5,AGTGAGAA,-0.058
6,GCTCGCTA,-0.0499
7,AGTACCAT,0.0849
8,AATTCACC,0.14
9,GATATCCC,0.0153
10,AAGATGGC,-0.0738
11,ATGATCGA,0.101
12,ACGGATCC,0.117
13,CAATGTGC,0.016
14,GATATGCA,-0.0288
15,AGGGTACC,-0.252
16,GCGACATA,0.0386
17,AAGGAGCG,-0.0927
18,GACGTTAC,-0.062
19,GTCTGGAA,-0.151
20,CACTTACC,0.0726
21,CGGGGAAA,0.0594
22,TGCCATAA,-0.189
23,GAAGTAAC,-0.142
24,CGATGTTA,0.0662
25,CCTGTGCG,0.0725

row,Sequence,PBM E-score
1,CAACTTAA,-0.23
2,AGTAGAAA,-0.185
3,TACCCTAA,0.00346
4,GTGCAACA,-0.0429
5,GTGTGATA,0.246
6,AGGTTTAT,0.201
7,AAACTGAT,0.0559
8,GTGCATGA,0.0825
9,ACCATAGA,-0.0566
10,CTCATCGC,0.239
11,CGTCGATC,0.059
12,CTAACAAA,0.097
13,TACACACA,0.268
14,AACCAGTA,0.0285
15,AAGTCTTA,-0.153
16,GTAACAAC,-0.00644
17,GCTAACAA,-0.269
18,GGCGTGCA,-0.213
19,CCATGCTA,0.0214
20,ATCTGTCG,0.0175
21,ATCCCTTA,-0.132
22,TCTTCAAA,-0.191
23,GCATAGTA,0.143
24,AAGACGTG,-0.092
25,AGATTGAT,-0.0242

row,Sequence,PBM E-score
1,GCCGTCTA,0.00852
2,CATGTTGA,0.278
3,CTCAGTTC,-0.211
4,CACACCTG,0.207
5,ATAATGAG,-0.0752
6,GCCTACCA,-0.124
7,AGGCACGG,-0.0807
8,TAAGCGCA,-0.255
9,ACCAATGG,0.0488
10,CACCCACC,0.317
11,CCCCAGAA,0.0534
12,AAGGTATA,-0.0777
13,ATCCGCGA,0.054
14,GAGTGCCC,-0.0963
15,GGTTCACA,-0.0324
16,TAAGTTGA,-0.039
17,CCCAGAGC,-0.164
18,GGCATACA,-0.0056
19,ACAGTCAC,0.242
20,ACTTCCCT,0.047
21,CAGGCGTA,0.0631
22,ACCAGCAC,0.0377
23,CCAAGCCG,-0.0219
24,GGCGATGA,0.18
25,AGAGCTCT,-0.414

row,Sequence,PBM E-score
1,AGCCCGAG,-0.0236
2,CGGCCAGC,0.0279
3,TATGGCCA,-0.103
4,AGTCGACA,0.197
5,CTTAACTC,0.0269
6,CCTCGAAA,-0.0369
7,AAGGAGTA,0.0394
8,CGACGTGC,-0.0912
9,ATCGTCTA,0.0131
10,CGAACTTA,-0.156
11,AATTGTCG,0.00109
12,CGTTTTCC,-0.224
13,AAGCGTGC,-0.0645
14,TCTTTGCA,-0.116
15,CATGTAGC,0.0159
16,CCGCAGAA,-0.17
17,ATGACCCG,0.0608
18,GCATACGA,0.0994
19,ATTTATGG,0.0625
20,GGAACAGA,0.0035
21,CTGCCTAA,-0.0481
22,CTCAGGTC,-0.0841
23,GCCACCAC,-0.0307
24,CTCAACCC,0.00367
25,CACTTGCC,-0.145

row,Sequence,PBM E-score
1,CATGACCC,0.256
2,CGACGCAC,-0.0141
3,GATGGACC,-0.00355
4,AGCCTATG,-0.217
5,GTTCTCAA,-0.0837
6,ACTACAAG,-0.00586
7,ACTTCGCG,0.00814
8,CGTAGCAG,-0.142
9,GGACTTCA,-0.126
10,ACTTGGCA,-0.289
11,CAGCTCCG,0.139
12,CTCTAACC,-0.0591
13,AACTATAA,0.0887
14,TAAGCCTA,-0.259
15,CTTCTAAC,-0.258
16,GACATGAA,-0.0428
17,CGCTTTCA,-0.18
18,CGCGCACG,0.102
19,CTACAAGA,-0.136
20,CGTCTGTC,-0.0216
21,AATACTCG,0.1
22,ACCATTCT,-0.107
23,CACCCTGA,0.245
24,GACAGGAA,-0.0881
25,GATGGCCA,-0.166

row,Sequence,PBM E-score
1,ACTCCCAC,0.105
2,GTGCGTTA,-0.0829
3,TGATACAA,0.178
4,AACGAGCT,0.0698
5,AAACCTTC,-0.165
6,AGTGGAAG,-0.212
7,ATGAACTG,0.0424
8,CCCGACTC,0.426
9,GATTGTTA,0.0785
10,CCAGTAGC,0.113
11,CCTCAGCG,-0.142
12,TAACTACA,0.0788
13,CAAAACAC,-0.0791
14,CACCCTCC,0.276
15,CGATCCGA,0.155
16,CTGCGCAA,0.0499
17,CTGTATGA,0.00162
18,ACGTAGAG,-0.252
19,ATGCCTAG,-0.213
20,CAACCTCC,0.0131
21,TAACGCCA,-0.00315
22,TGATTACA,0.221
23,AGCTACTG,0.175
24,GTCAACGA,0.109
25,CGACCTGC,-0.0762

row,Sequence,PBM E-score
1,CAGTGTGA,0.285
2,CGATGTGC,0.184
3,AGTATCCA,0.0886
4,ATCAAGAA,0.032
5,AAGATGAA,-0.115
6,ACCCCTAT,0.0618
7,CATTGGTA,0.00258
8,ATGTCCTC,-0.156
9,GCTCTTGA,-0.0407
10,CGCCTATC,-0.00765
11,ATCGCCAA,-0.237
12,ACCATGCG,0.0586
13,GGGTCGCA,0.045
14,AGAGAATG,0.0611
15,AATAAAGT,0.0705
16,TCTATCAA,-0.129
17,GCTATGCC,-0.196
18,CCCTGCTA,-0.148
19,AGTCATGG,0.458
20,ACTACCAG,0.109
21,CGTGTGGC,0.0774
22,CTCACACC,0.0809
